# Reference: PubChem BioAssay AID624418 (National Center for Advancing Translational Sciences (NCATS), 2012)
# Screen size: about 410,000 compounds; about 530 (0.13%) were called active. Inconclusive means that the source gave no clear call. Such entries were picked first, then a sample of the others. The call rests on the fitted dose curve; in most records, active means well fitted inhibition curve with a large enough effect; inconclusive means small, poorly fitted or top-dose-only effect, or another doubt; inactive means no such curve, though single readings can be large or run the other way. Potencies of inconclusive entries are doubtful fits and often do not repeat.
# Test: qHTS of GLP-1 Receptor Inverse Agonists: Cytotox Screen
# Conditions: HEK293 cAMP-luciferase reporter cells, luminescence, 24 h; activity change, negative = inhibition: at 38.3 µM (top of the series) unless noted
# Procedure, shortened: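 Cells in DMEM/10% Nu serum/1% pen-strep, 1536-well format. Pre-incubated 12 h, dosed with 23 nL compound, incubated a further 24 h. Luciferase detection, 12 min at room temp, luminescence.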
# On the % scale 0 is the no-effect control and ±100 the full control effect; potency means the concentration at half of the fitted maximal effect.
Structure (SMILES),Potency,"activity change, negative = inhibition"
C/C=C1\COC(C(=O)NCCN2CCCC2)(C(F)(F)F)C=C1C=C1CCCCC1 (stereo unspecified),"inconclusive: 22.4 µM [inhibitor, single point]",–
COc1ccc2[nH]c(=O)c(CN(C(=O)c3cccnc3)c3cc(C)ccc3C)cc2c1,"inconclusive: 2.51 µM [inhibitor, partial curve, poor fit]",–
O=C(CCCN1C(=O)/C(=C/c2ccccc2Cl)SC1=S)NNC(=O)c1ccccc1,"inconclusive: 28.2 µM [inhibitor, single point]",–
Cc1cccc(-c2nnc(SCc3ccc(C#N)cc3)n2Cc2ccco2)c1,"inconclusive: 28.2 µM [inhibitor, single point]",–
CC1(Cc2ccccc2OC(F)(F)F)C(=O)Nc2cc(-c3ccccc3Cl)ccc21 (stereo unspecified),"inconclusive: 28.2 µM [inhibitor, single point]",–
O=C(NCc1ccccc1)C1=C[C@@H](c2csc3ccccc23)C[C@@H](OCc2ccc(CO)cc2)O1,–,inactive: -5.98%
COc1ccc(OC)c2c(C)cc(N3CCCCCC3)nc12,"inconclusive: 28.2 µM [inhibitor, single point]",–
CCCN(CC(=O)Nc1ccccc1C)C(=O)c1ccc(N2CCCC2=O)cc1,–,inactive: -6.5%
CC(C)(C)OC(=O)N1CCCC(C(=O)Nc2ccc(C(=O)N3CCCC3)cc2)C1 (stereo unspecified),"inconclusive: 31.6 µM [inhibitor, single point]",–
C[C@@H]1NC(=O)c2cc([N+](=O)[O-])cc(I)c2NCCCC[C@@H](C(N)=O)NC(=O)[C@H](CCC(=O)O)NC1=O,"inconclusive: 14.1 µM [inhibitor, partial curve, poor fit]",–
CC(C)Oc1cccc(C(=O)C2CCCN(Cc3cccn3-c3ccccn3)C2)c1 (stereo unspecified),"inconclusive: 10 µM [inhibitor, partial curve]",–
Cc1ccc(-c2cc3nc4c(c(=O)n3[nH]2)CCCC4)cc1,–,inactive: 2.04%
O=C(CN1CCN(Cc2ccccc2Cl)C1=O)NCc1ccco1,–,inactive: -19.2%
CC(C)(C)N1OC2CC1c1nc3ccccc3n1C2 (stereo unspecified),"inconclusive: 31.6 µM [inhibitor, partial curve, poor fit]",–
O=[N+]([O-])C1C(c2ccccc2)C12c1ccccc1-c1ccccc12 (stereo unspecified),"inconclusive: 1.78 µM [inhibitor, full curve, poor fit]",–
CC(=O)N(C)C1=C(N2CCOCC2)C(=O)c2ccccc2C1=O,"inconclusive: 15.8 µM [inhibitor, partial curve, poor fit]",–
CCOc1ccc(C(=O)N/N=C(/C)C2C(=O)c3ccccc3C2=O)cc1,"inconclusive: 1.78 µM [inhibitor, full curve, poor fit]",–
CC1=CC(C)(C)N(S(=O)(=O)c2ccc(C)cc2)c2ccc(C)cc21,"inconclusive: 3.98 µM [inhibitor, full curve, poor fit]",–
O=C(NCc1ccccc1)C1C(c2ccc3c(c2)OCO3)=Nc2ccccc2N1C(=O)c1cccc(C(F)(F)F)c1 (stereo unspecified),–,inactive: -3.38%
Cc1nc(SC2CC(=O)N(c3cc(Cl)cc(Cl)c3)C2=O)nc2c1CCCC2 (stereo unspecified),"inconclusive: 31.6 µM [inhibitor, single point]",–
CCCCn1c(N)c(N(CCC(C)C)C(=O)c2oc3ccc(OCC)cc3c2C)c(=O)[nH]c1=O,"inconclusive: 5.62 µM [inhibitor, partial curve, poor fit]",–

Structure (SMILES),Potency,"activity change, negative = inhibition"
C=CCSc1nc2c(c(=O)n(C)c(=O)n2C)n1CC,"inconclusive: 1.26 µM [inhibitor, full curve, poor fit]",–
CC(C)(C)N(NC(=O)Nc1ccc(Cl)c(Cl)c1)C(=O)c1ccccc1,"inconclusive: 28.2 µM [inhibitor, single point]",–
COc1ccc(C2c3c(ncn(CCCO)c3=N)Oc3ccc4ccccc4c32)cc1OC (stereo unspecified),"inconclusive: 28.2 µM [inhibitor, single point]",–
CCOC(=O)c1sc2ccccc2c1OC(=O)c1ccccc1,–,inactive: -30.9%
O=C(NNC1=NCCC1)c1cccc(S(=O)(=O)N2CCOCC2)c1,"inconclusive: 10 µM [inhibitor, partial curve, poor fit]",–
Cc1cc(N/N=C/c2cccc(Cl)c2)nc(-n2nc(C)cc2C)n1,"inconclusive: 0.708 µM [inhibitor, full curve, poor fit]",–
O=C1CN(C(=O)CSc2nc3cc(Cl)ccc3c(=O)n2Cc2ccccc2)c2ccccc2N1,"inconclusive: 3.55 µM [inhibitor, full curve, poor fit]",–
Nc1[nH]n(-c2ccccc2)c(=O)c1N=Nc1ccc2ncsc2c1,"inconclusive: 20 µM [inhibitor, single point]",–
COc1ccc(Nc2c([N+](=O)[O-])ccc3c2=NC2(CCCCC2)N=3)cc1,"inconclusive: 10 µM [inhibitor, partial curve, poor fit]",–
Cc1ccc(C(=O)OCC(=O)NCc2cccc(Cl)c2)cc1S(=O)(=O)N1CCCCC1,–,inactive: 2.15%
CSC(SC)=C(C#N)C(=O)c1ccccc1,"inconclusive: 28.2 µM [inhibitor, single point]",–
Cc1ccc(OCCCC(=O)Nc2ccc(Cl)c(S(=O)(=O)N3CCOCC3)c2)cc1,–,inactive: -2.12%
O=C(NC1CCCC1)c1cc(-c2cccs2)on1,–,inactive: -4.48%
CCCCCCC(O)(c1ccccc1)C(CN1CCOCC1)c1ccccc1 (stereo unspecified),"inconclusive: 12.6 µM [inhibitor, single point]",–
COC(=O)c1ccc(NC2(C#N)C(=O)Nc3ccccc32)cc1 (stereo unspecified),"inconclusive: 11.2 µM [inhibitor, single point]",–
Cc1cc2c(cc1C)N(C(=O)CCl)CC(=O)N2,"inconclusive: 14.1 µM [inhibitor, single point]",–
CCCCn1c(N)c(N(CCOC)C(=O)c2cc3c(s2)CCCCC3)c(=O)[nH]c1=O,–,inactive: 21.8%
Nc1nc2ccc(Cl)cc2cc1C(=O)NCCCN1CCOCC1,–,inactive: 3.25%
CCOC(=O)c1ccc(NC(=S)P(=O)(c2ccccc2)c2ccccc2)cc1,"inconclusive: 7.08 µM [inhibitor, partial curve, poor fit]",–
CCCCOCCCNC(=O)C[C@@H]1C[C@@]2(C(=O)OCC)CCC=C2N(Cc2ccc3c(c2)OCO3)C1=O,–,inactive: -3.6%
